The values that follow come from article PMC4336329 (PLoS ONE, 2015).

The structures appear in SMILES notation. Screen size: about 310,000 compounds; about 2,200 (0.71%) showed an effect of 50% or more. The effect is printed as a negative number. This is one part of the list.

Chain of human ether-à-go-go-related gene (hERG) potassium channel (Q12809 whole entry, looked up): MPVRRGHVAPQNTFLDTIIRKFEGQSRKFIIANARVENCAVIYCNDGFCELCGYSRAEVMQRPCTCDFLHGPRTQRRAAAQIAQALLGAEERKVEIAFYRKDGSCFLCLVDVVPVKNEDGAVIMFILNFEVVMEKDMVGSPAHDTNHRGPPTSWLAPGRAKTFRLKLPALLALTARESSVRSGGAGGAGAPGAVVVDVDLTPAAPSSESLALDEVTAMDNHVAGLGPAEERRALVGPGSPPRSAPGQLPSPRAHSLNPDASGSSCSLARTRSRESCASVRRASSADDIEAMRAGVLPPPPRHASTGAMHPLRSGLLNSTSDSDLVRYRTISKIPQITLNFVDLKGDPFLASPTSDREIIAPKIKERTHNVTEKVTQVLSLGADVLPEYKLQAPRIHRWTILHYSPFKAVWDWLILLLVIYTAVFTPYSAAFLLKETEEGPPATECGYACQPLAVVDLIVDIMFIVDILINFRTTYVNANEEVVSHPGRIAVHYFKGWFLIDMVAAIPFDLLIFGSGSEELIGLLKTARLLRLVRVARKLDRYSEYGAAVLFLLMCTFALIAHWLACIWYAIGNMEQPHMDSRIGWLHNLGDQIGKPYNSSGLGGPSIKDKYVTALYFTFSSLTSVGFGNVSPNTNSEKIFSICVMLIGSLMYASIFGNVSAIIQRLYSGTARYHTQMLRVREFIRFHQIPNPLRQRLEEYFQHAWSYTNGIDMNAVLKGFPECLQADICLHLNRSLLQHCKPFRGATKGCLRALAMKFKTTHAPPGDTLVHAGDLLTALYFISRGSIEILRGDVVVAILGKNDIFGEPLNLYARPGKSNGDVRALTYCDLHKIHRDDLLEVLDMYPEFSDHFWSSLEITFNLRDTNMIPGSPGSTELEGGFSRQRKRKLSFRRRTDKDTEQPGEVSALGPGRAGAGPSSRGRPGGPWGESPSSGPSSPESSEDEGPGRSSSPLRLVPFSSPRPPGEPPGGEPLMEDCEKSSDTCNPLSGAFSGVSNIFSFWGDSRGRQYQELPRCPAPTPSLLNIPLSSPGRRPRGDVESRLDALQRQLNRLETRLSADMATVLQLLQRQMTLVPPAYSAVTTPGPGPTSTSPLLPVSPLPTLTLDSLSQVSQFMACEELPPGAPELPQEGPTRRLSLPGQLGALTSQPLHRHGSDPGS

This assay has as its target human ether-à-go-go-related gene (hERG) potassium channel (human, UniProt Q12809). In words: primary screen, population patch clamp on CHO cells stably expressing hERG.
On to `CCC(C)N(C(=O)Cn1cnc2c1c(=O)n(C)c(=O)n2C)C1CCS(=O)(=O)C1` (stereo not drawn), for which the “hERG current change (%, negative = inhibition) at 1uM” value is reported as 17.5%.

On to `O=[N+]([O-])c1ccc(Cl)c(/C=N/N2CCN(Cc3ccc(Cl)cc3)CC2)c1`, for which the “hERG current change (%, negative = inhibition) at 1uM” value is given as -0.568%.

Take `CC(Oc1ccc(Cl)cc1Cl)C(=O)NCCCN(C)C` (stereo not drawn): the “hERG current change (%, negative = inhibition) at 1uM” value turned out to be 0.712%.

Regarding `O=c1oc2ccccc2c(NC(c2ccccc2)c2ccccc2)c1[N+](=O)[O-]`, the “hERG current change (%, negative = inhibition) at 1uM” value is recorded as 2.24%.

Turning to `CCN1CCN(C2=NC(=O)/C(=C/c3ccc(C)o3)S2)CC1`, the “hERG current change (%, negative = inhibition) at 1uM” value is reported as -9.05%.

As to `Cc1ccc(NC(=O)c2nnn(CC(=O)Nc3ccccc3)c2N)cc1C`, the “hERG current change (%, negative = inhibition) at 1uM” value is listed as 10.4%.

Take `CCOC(=O)c1cnc(SCC(=O)NNC(=O)c2ccco2)nc1N`: the “hERG current change (%, negative = inhibition) at 1uM” value came out at 11.5%.

`COc1ccc(OCCNC(=S)Nc2cccc3ccccc23)cc1`: the “hERG current change (%, negative = inhibition) at 1uM” value amounted to 4.59%.

Consider `Cc1ccccc1S(=O)(=O)Cc1ccc(C(=O)NCCCN2CCC(C)CC2)o1`, for which the “hERG current change (%, negative = inhibition) at 1uM” value is 0.269%.

In the case of `CC(C(=O)NCc1cccnc1)c1ccc([N+](=O)[O-])cc1` (stereo not drawn), the “hERG current change (%, negative = inhibition) at 1uM” value is recorded as 5.41%.

With `CC1(C)CC(=O)C2=C(C1)c1c(ccc3ccccc13)NC2c1ccc(C(=O)O)cc1` (stereo not drawn), the “hERG current change (%, negative = inhibition) at 1uM” value is on record as 30.1%.

With `O=C(/C=C/c1ccccc1)N1CCN(c2ccc([N+](=O)[O-])c(N3CCOCC3)c2)CC1`, the “hERG current change (%, negative = inhibition) at 1uM” value is -3.74%.

Turning to `COC(=O)c1c(NC(=O)c2nc3nc(C)cc(C(F)F)n3n2)sc2c1CCC2`, the “hERG current change (%, negative = inhibition) at 1uM” value is listed as 7.06%.

For `CN(Cc1c(C(=O)N/N=C/c2cccc(Cl)c2)nnn1-c1nonc1N)c1ccccc1`, the “hERG current change (%, negative = inhibition) at 1uM” value came to 10.7%.

On to `COc1ccc(NC(=S)N2CCc3ccccc3C2)cc1OC`, for which the “hERG current change (%, negative = inhibition) at 1uM” value turned out to be 7.27%.

With `CC1=C(C#N)C(Nc2ccc(C)cn2)(C(F)(F)F)C(=O)N1` (stereo not drawn), the “hERG current change (%, negative = inhibition) at 1uM” value was -9.19%.

Regarding `Cc1ccc2c(c1)N(CC(=O)NCC1CCCO1)C(=O)CO2` (stereo not drawn), the “hERG current change (%, negative = inhibition) at 1uM” value was found to be 12.3%.

Regarding `CC1Oc2ccccc2N(CC(=O)NCCCN2CCOCC2)C1=O` (stereo not drawn), the “hERG current change (%, negative = inhibition) at 1uM” value came to 18.1%.

With `Cc1cc(=O)oc2c3c(cc(OCC(=O)NCc4ccco4)c12)OC(C)(C)CC3`, the “hERG current change (%, negative = inhibition) at 1uM” value was -1.54%.

In the case of `CCOC(=O)C1CCN(c2ncnc3c2cnn3-c2ccc(OC)cc2)CC1`, the “hERG current change (%, negative = inhibition) at 1uM” value was determined as 5.05%.

With `O=C(CCC(=O)N1CCOc2ccccc21)NC1CCCCCC1`, the “hERG current change (%, negative = inhibition) at 1uM” value is recorded as -2.32%.

Regarding `CCOC(=O)C1C(=O)NC(c2ccccc2)=NC1c1ccc(O)c(OC)c1` (stereo not drawn), the “hERG current change (%, negative = inhibition) at 1uM” value was determined as 3.13%.

For `COc1cccc(NC(=O)CN(C)C(=O)Cn2c(=O)oc3ccccc32)c1`, the “hERG current change (%, negative = inhibition) at 1uM” value came out at 13.4%.

For `COc1ccc(OC)c(S(=O)(=O)N2C(C)CCCC2C)c1` (stereo not drawn), the “hERG current change (%, negative = inhibition) at 1uM” value amounted to 7.33%.

In the case of `O=[N+]([O-])c1ccccc1N/N=C/c1cc2ccccc2nc1Cl`, the “hERG current change (%, negative = inhibition) at 1uM” value is 6.39%.

Consider `CCC(C)NC(=O)C(=O)NCC1CCCN1CC` (stereo not drawn), for which the “hERG current change (%, negative = inhibition) at 1uM” value amounted to 2.12%.

Regarding `O=C(C1CCC(=O)N1Cc1ccc(F)cc1)N1CCC2(CC1)OCCO2` (stereo not drawn), the “hERG current change (%, negative = inhibition) at 1uM” value is recorded as 16.5%.

On to `Cc1ccc2cc(C#N)c(N3CCCC3)nc2c1C`, for which the “hERG current change (%, negative = inhibition) at 1uM” value was found to be 7.14%.

In the case of `Cc1ccc(C)c(NC(=O)c2ncn[nH]2)c1`, the “hERG current change (%, negative = inhibition) at 1uM” value is reported as 9.54%.

Regarding `OCCNCCc1c[nH]c2ccc(OCc3ccccc3)cc12`, the “hERG current change (%, negative = inhibition) at 1uM” value came out at 4.99%.

On to `C=CCn1c(Oc2ccc(C(=O)OC)cc2)nc2c1c(=O)n(C)c(=O)n2C`, for which the “hERG current change (%, negative = inhibition) at 1uM” value came to 4.62%.

On to `Cc1ccc(-c2cc(C(=O)Nc3cccnc3)c3ccccc3n2)o1`, for which the “hERG current change (%, negative = inhibition) at 1uM” value came out at 12%.

As for `COc1ccc(-c2[nH]ncc2/C=N\NC(=O)c2ccc(Br)o2)cc1OC`, the “hERG current change (%, negative = inhibition) at 1uM” value is 6.1%.

For `CCS(=O)(=O)N1CCCC(C(=O)NC2CCCCC2)C1` (stereo not drawn), the “hERG current change (%, negative = inhibition) at 1uM” value was 19.7%.

As to `Cc1c(C(=O)N2CCCc3ccccc32)oc2ccccc12`, the “hERG current change (%, negative = inhibition) at 1uM” value turned out to be 13.1%.

For the molecule `CC12CCC(C(=O)N3CCC(Cc4ccccc4)CC3)(C(=O)C1=O)C2(C)C` (stereo not drawn), the “hERG current change (%, negative = inhibition) at 1uM” value was 10.1%.

With `Cc1ccnc2ccc(-c3nc4ccccc4o3)cc12`, the “hERG current change (%, negative = inhibition) at 1uM” value amounted to 5.81%.

For the molecule `CC(C)(C)c1cc(Br)c(O)c(N=Nc2ccc(S(=O)(=O)N3CCOCC3)cc2)c1`, the “hERG current change (%, negative = inhibition) at 1uM” value is reported as 7.41%.

Consider `Cc1cc(C)c(S(=O)(=O)NCCn2ccc3ccccc32)c(C)c1`, for which the “hERG current change (%, negative = inhibition) at 1uM” value amounted to 16.1%.

For `COc1ccccc1C/C(N)=N/OC(=O)COc1cccc2ccccc12`, the “hERG current change (%, negative = inhibition) at 1uM” value is recorded as 0.942%.

As for `Cc1n[nH]c(=O)n1-c1ccc(C(C)(C)C)cc1`, the “hERG current change (%, negative = inhibition) at 1uM” value was 15.3%.

For the molecule `CCCOc1ccc(CN(CCO)CCO)cc1C(=O)OC`, the “hERG current change (%, negative = inhibition) at 1uM” value was 17.9%.

On to `COC(=O)c1[nH]c2cc(OC)ccc2c1NC(=O)CCN1CCCCC1`, for which the “hERG current change (%, negative = inhibition) at 1uM” value is given as -10%.

Turning to `COC(=O)c1ccc(NS(=O)(=O)c2ccc(SC)cc2)cc1`, the “hERG current change (%, negative = inhibition) at 1uM” value is reported as 5.48%.

With `CCOC(=O)c1cccc(NS(=O)(=O)c2c(C(=O)N3CCCCCC3)c(C)n(C)c2C)c1`, the “hERG current change (%, negative = inhibition) at 1uM” value is -6.05%.

On to `CC(=O)Nc1ccc(NC(=O)C/C(C)=N/NC(N)=S)cc1`, for which the “hERG current change (%, negative = inhibition) at 1uM” value is recorded as 11.9%.

As to `CCOC(=O)N1CCC(NC(=O)C2=CCN(S(=O)(=O)c3ccccc3)CC2)CC1`, the “hERG current change (%, negative = inhibition) at 1uM” value was determined as 14.7%.

As for `CCN(CC)C(=O)C(=O)Nc1ccc(Oc2ccccc2)cc1`, the “hERG current change (%, negative = inhibition) at 1uM” value came out at 5.65%.

For the molecule `Oc1c(C=C2N=c3ccccc3=N2)sc(=S)n1-c1ccc(F)cc1` [17401255], the “hERG current change (%, negative = inhibition) at 1uM” value came to 18.3%.

`CC(C)S(=O)(=O)c1csc(NC(=O)Nc2ccc(Cl)cc2)c1`: the “hERG current change (%, negative = inhibition) at 1uM” value stood at 8.55%.

As for `COCCNC(=O)CCc1c(C)nc2c(c(C)nn2-c2ccc(C)cc2)c1C`, the “hERG current change (%, negative = inhibition) at 1uM” value stood at 9.04%.

Regarding `COc1ccc(CNC(=O)c2ccc(CS(=O)(=O)c3ccccc3C)o2)cc1`, the “hERG current change (%, negative = inhibition) at 1uM” value was 13.1%.

Consider `Cc1c(C(=O)Nc2ccc3c(c2)OCCO3)cnn1C`, for which the “hERG current change (%, negative = inhibition) at 1uM” value is 16.4%.

For `NC(=O)c1ccc(-n2nnnc2Oc2ccccc2C(=O)N2CCOCC2)cc1`, the “hERG current change (%, negative = inhibition) at 1uM” value was 11.6%.

`CCCCCSc1cc(OC)c(CCN(C)C)cc1OC.O=C(O)/C=C\C(=O)O`: the “hERG current change (%, negative = inhibition) at 1uM” value was -16.9%.

For `COCCn1c(SCC(=O)N2CCCC2=O)nc2sc(C)c(C)c2c1=O`, the “hERG current change (%, negative = inhibition) at 1uM” value is listed as 17.5%.

Turning to `CC1=C(C(N)=O)C(c2cccc(O)c2)n2nc(CCCO)nc2N1` (stereo not drawn), the “hERG current change (%, negative = inhibition) at 1uM” value was 11.3%.
